From publication PMC9911399, “Two distinct binding modes provide the RNA-binding protein RbFox with extraordinary sequence specificity”
Numbering of substitutions follows the chain as printed; changes in the protein carry UniProt numbers. This is one part of the list.

T1: RBFOX1 RRM (Homo sapiens, UniProt Q9NWB1 109-208)
T1 sequence: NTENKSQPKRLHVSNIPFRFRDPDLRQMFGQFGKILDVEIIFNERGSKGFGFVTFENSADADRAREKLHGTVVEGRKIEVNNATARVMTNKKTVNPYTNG

B1: UUACGAA (DNA:RNA)
RNA: GGGAGACCGGAAUUCAGAUUGUCCUUACGAAUUAAAUCCCGUCGUAGCCACCA
DNA 1: CAATCTGAATTCCGGTCTCCC
DNA 2: TGGTGGCTACGACGGGATT
B2: CUCACUA (DNA:RNA)
RNA: B1 RNA with U25C, A27C, C28A, G29C, A30U
DNA 1: CAATCTGAATTCCGGTCTCCC
DNA 2: TGGTGGCTACGACGGGATT
B3: UAAAAUA (DNA:RNA)
RNA: B1 RNA with U26A, C28A, G29A, A30U
DNA 1: CAATCTGAATTCCGGTCTCCC
DNA 2: TGGTGGCTACGACGGGATT
B4: AGACACG (DNA:RNA)
RNA: B1 RNA with U25A, U26G, G29A, A30C, A31G
DNA 1: CAATCTGAATTCCGGTCTCCC
DNA 2: TGGTGGCTACGACGGGATT
B5: ACUCCUA (DNA:RNA)
RNA: B1 RNA with U25A, U26C, A27U, G29C, A30U
DNA 1: CAATCTGAATTCCGGTCTCCC
DNA 2: TGGTGGCTACGACGGGATT
B6: GAAUCCG (DNA:RNA)
RNA: B1 RNA with U25G, U26A, C28U, G29C, A30C, A31G
DNA 1: CAATCTGAATTCCGGTCTCCC
DNA 2: TGGTGGCTACGACGGGATT
B7: GACAGCU (DNA:RNA)
RNA: B1 RNA with U25G, U26A, A27C, C28A, A30C, A31U
DNA 1: CAATCTGAATTCCGGTCTCCC
DNA 2: TGGTGGCTACGACGGGATT
B8: GCGUUUC (DNA:RNA)
RNA: GGGAGACCGGAAUUCAGAUUGUCCGCGUUUCUUAAAUCCCGUCGUAGCCACCA
DNA 1: CAATCTGAATTCCGGTCTCCC
DNA 2: TGGTGGCTACGACGGGATT
B9: CAGCUGC (DNA:RNA)
RNA: B8 RNA with G25C, C26A, U28C, U30G
DNA 1: CAATCTGAATTCCGGTCTCCC
DNA 2: TGGTGGCTACGACGGGATT

Biological target: T1, RBFOX1 RRM
Test: EMSA; HiTS-Eq, 1 nM pool, 10 min; buffer printed only for the single-RNA assays: 10 mM Tris pH 7.5, 150 mM NaCl, 3.4 mM EDTA, 0.001% NP-40, 30 C
Settings: tags: His6 N-terminal (pET28a); label: 5' 32P
How it was run: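 Purified RbFox RRM, wild type or mutant, was incubated for 10 min in 50 µL with 1 nM of a 5′-radiolabelled RNA pool carrying 7 randomized nucleotides, whose flanks were annealed to DNA oligonucleotides, over a series of increasing protein concentrations. Unbound RNA was resolved on 8% native PAGE, cut out, reverse-transcribed, barcoded by PCR and sequenced on an Illumina HiSeq 2500. Relative association constants were derived from changes in read counts for each RNA species versus the control reaction and normalised to the cognate motif.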

Binder | binding signal
B1 | 0.00945 KA relative to UGCAUGU
B2 | 0.00245 KA relative to UGCAUGU
B3 | 0.0019 KA relative to UGCAUGU
B4 | 0.00775 KA relative to UGCAUGU
B5 | 0.00437 KA relative to UGCAUGU
B6 | 0.00852 KA relative to UGCAUGU
B7 | 0.00951 KA relative to UGCAUGU
B8 | 0.0163 KA relative to UGCAUGU
B9 | 0.0106 KA relative to UGCAUGU
